Assay results taken from PubChem BioAssay AID624171 (National Center for Advancing Translational Sciences (NCATS), 2012).
Screen size: about 410,000 compounds; about 1,200 (0.29%) were called active. This list was built around the results that the source calls inconclusive (neither active nor inactive); the mix of calls is not that of the screen. The call rests on the fitted dose curve; in most records, active means well fitted activation curve with a large enough effect; inconclusive means small, poorly fitted or top-dose-only effect; inactive means flat fitted curve, though single readings scatter. A potency beside an inconclusive call is a rough fit, not a confirmed value.

assay: qHTS of Nrf2 Activators; settings: AREc32 ARE-luciferase reporter (MCF7-derived line), luminescence, 24 h; activation: at 46.1 µM (top of the series); further: nearly all actives have a fitted effect of over 65% in size; on activation: % of control where 0% means no effect
Outline: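 Luminescent ARE reporter assay in AREc32_Fluc cells: overnight plating at 37 deg C, 24 hr compound incubation, Steady-Glo added, 30 min RT before reading.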
Potency means the concentration at half of the fitted maximal effect; tags describe the fitted curve by direction and shape.

Row | Structure (SMILES) | Potency | activation
1 | c1ccc(-c2ccc(-c3ccccn3)s2)nc1 | inconclusive: 2.82 µM [activator, partial curve, poor fit] | 
2 | COC(=O)CCCn1c(C)cc(C(=O)CCl)c1C | inconclusive: 20 µM [activator, single point] | 
3 | CCSc1ccc(-c2cccc([N+](=O)[O-])c2)nn1 | inconclusive: 22.4 µM [activator, single point] | 
4 | Cn1c(SCC(=O)N/N=C/C=C/c2ccccc2[N+](=O)[O-])nc2ccccc21 | inconclusive: 35.5 µM [activator, partial curve, poor fit] | 
5 | Cn1c(/C(C#N)=C/c2ccccc2Br)nc2ccccc21 | active: 8.91 µM | 
6 | COc1ccc(/C=C/c2ccc3ccccc3[n+]2C)cc1OC |  | inactive: 11.1%
7 | C=C(CN(C)C)C(=O)c1ccc(OC2OC(COC(C)=O)C(OC(C)=O)C(OC(C)=O)C2OC(C)=O)cc1 (centres undefined) | inconclusive: 5.62 µM [activator, single point] | 
8 | NS(=O)(=O)c1ccc(O)c(NC(=O)c2ccc([N+](=O)[O-])o2)c1 | active: 10 µM | 
9 | Oc1ccccc1-c1cc(-c2ccco2)[nH]n1 | inconclusive: 11.2 µM [activator, partial curve] | 
10 | Clc1ccccc1OCCn1cnc2ccccc21 |  | inactive: 2.64%
11 | CC(C)(C)c1ccc(/C=C(\c2nc3ccccc3[nH]2)S(=O)(=O)c2ccccc2)cc1 | inconclusive: 3.55 µM [activator, single point] | 
12 | Cc1nc(Nc2cccc(F)c2)c2oc3ccccc3c2n1 | inconclusive: 12.6 µM [activator, partial curve, poor fit] | 
13 | CCOc1ccccc1NC(=O)Nc1nnc(N2CCCC(C)C2)s1 (centres undefined) |  | inactive: 3.42%
14 | CC1Cc2ccccc2N1C(=O)CSc1nn2c(=O)c(C(C)(C)C)nnc2s1 (centres undefined) | inconclusive: 20 µM [activator, single point] | 
15 | CNc1ccc(Br)cc(C(=O)/C=C/c2cccc(OC)c2)c1=O | inconclusive: 2.82 µM [activator, full curve, poor fit] | 
16 | COc1cc(C(=S)N2CCOCC2)cc(OC)c1OC(=O)c1ccc([N+](=O)[O-])cc1[N+](=O)[O-] | inconclusive: 17.8 µM [activator, single point] | 
17 | CCCCn1c(N)c(N(CCC(C)C)C(=O)c2[nH]c(C)c(C(=O)OCC)c2C)c(=O)[nH]c1=O |  | inactive: 0.12%
18 | Cc1ccc(/C=C/C(=O)c2ccc(O)cc2)cc1 | inconclusive: 0.562 µM [activator, full curve, poor fit] | 
19 | CCCN(C(=O)c1ccco1)c1nnc(-c2cccc(C)c2)s1 | active: 10 µM | 
